# The list shows a part of the results.
# B1: HPL (Tachypleus tridentatus) (protein)
# chain: MEDDCTCVTDRSLEGKLMKHPSTPAVYQILDGCRRLVPNPPTYNNIYKNWECIQSNILEKLLCKCDSLSNGAELIKGSGDTVYLLSNGVKRPIADPETFNGFCFDWNKIKTYSDIVINSLSTGPIIIIKHHHHHH
# How the values were obtained:
# Assay in all cases: glycan array binding signal (z-score within array); higher = stronger binding
# Conditions in all cases: glycan notation: IUPAC condensed, linker removed
# [1] = target: Gal3S(b1-4)Glc
# How it was run: (§1)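 The binding signal is a Z-score computed within each array and averaged over linkers. Arrays of the same protein sequence at different concentrations or buffers were also averaged together. Data originate from 3228 arrays in the Consortium for Functional Glycomics database, kept only where the protein sequence was available.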
# [2] = target: Gal3S(b1-4)Glc6S
# How it was run: as §1
# [3] = target: Gal3S(b1-4)GlcNAc
# How it was run: as §1
# [4] = target: Gal3S(b1-4)[Fuc(a1-3)]Glc6S
# How it was run: as §1
# [5] = target: Gal3S(b1-4)[Fuc(a1-3)]GlcNAc
# How it was run: as §1
# [6] = target: Gal3S(b1-4)[Fuc(a1-3)]GlcNAc6S
# How it was run: as §1
# [7] = target: Gal3S4S(b1-4)GlcNAc
# How it was run: as §1
# [8] = target: Gal3S6S(b1-4)GlcNAc
# How it was run: as §1
# [9] = target: Gal3S6S(b1-4)GlcNAc6S
# How it was run: as §1
# [10] = target: Gal4S(b1-4)GlcNAc
# How it was run: as §1
# [11] = target: Gal4S6S(b1-4)GlcNAc
# How it was run: as §1
# [12] = target: Gal6P(b1-4)GlcNAc
# How it was run: as §1
# [13] = target: Gal6S(b1-3)GlcNAc
# How it was run: as §1
# [14] = target: Gal6S(b1-3)GlcNAc6S
# How it was run: as §1
# [15] = target: Gal6S(b1-4)Glc
# How it was run: as §1
# [16] = target: Gal6S(b1-4)Glc6S
# How it was run: as §1
# [17] = target: Gal6S(b1-4)GlcNAc
# How it was run: as §1
# [18] = target: Gal6S(b1-4)GlcNAc6S
# How it was run: as §1
# [19] = target: GalNAc(a1-3)Gal
# How it was run: as §1
# [20] = target: GalNAc(a1-3)GalNAc
# How it was run: as §1
# [21] = target: GalNAc(a1-3)GalNAc(b1-3)Gal(a1-4)Gal(b1-4)Glc
# How it was run: as §1
# [22] = target: GalNAc(a1-3)GalNAc(b1-3)Gal(a1-4)Gal(b1-4)GlcNAc
# How it was run: as §1
# [23] = target: GalNAc(b1-3)Gal
# How it was run: as §1
# [24] = target: GalNAc(b1-3)Gal(a1-4)Gal(b1-4)GlcNAc
# How it was run: as §1
# [25] = target: GalNAc(b1-3)Gal(a1-4)Gal(b1-4)GlcNAc(b1-3)Gal(b1-4)Glc
# How it was run: as §1
# [26] = target: GalNAc(b1-3)Gal(a1-6)Gal(b1-4)Glc
# How it was run: as §1
# [27] = target: GalNAc(b1-3)GalNAc
# How it was run: as §1
# [28] = target: GalNAc(b1-3)GlcNAc
# How it was run: as §1
# [29] = target: GalNAc(b1-4)Gal(b1-4)Glc
# How it was run: as §1
# [30] = target: GalNAc(b1-4)GlcNAc
# How it was run: as §1
# [31] = target: GalNAc(b1-4)GlcNAc(b1-2)Man
# How it was run: as §1
# [32] = target: GalNAc(b1-4)GlcNAc(b1-2)Man(a1-3)[GalNAc(b1-4)GlcNAc(b1-2)Man(a1-6)]Man(b1-4)GlcNAc(b1-4)GlcNAc
# How it was run: as §1
# [33] = target: GalNAc(b1-4)GlcNAc(b1-3)GalNAc(b1-4)GlcNAc
# How it was run: as §1
# [34] = target: GalNAc(b1-4)GlcNAc6S
# How it was run: as §1
# [35] = target: GalNAc(b1-6)GalNAc
# How it was run: as §1
# [36] = target: GalNAc3S(b1-4)GlcNAc
# How it was run: as §1
# [37] = target: GalNAc3S(b1-4)GlcNAc3S
# How it was run: as §1
# [38] = target: GalNAc3S(b1-4)[Fuc(a1-3)]GlcNAc
# How it was run: as §1
# [39] = target: GalNAc4S6S(b1-4)GlcNAc
# How it was run: as §1
# [40] = target: GalNAc6S(b1-4)GlcNAc
# How it was run: as §1
# [41] = target: Glc(a1-4)Glc
# How it was run: as §1
# [42] = target: Glc(a1-4)Glc(a1-4)Glc(a1-4)Glc
# How it was run: as §1
# [43] = target: Glc(a1-6)Glc(a1-6)Glc
# How it was run: as §1
# [44] = target: Glc(a1-6)Glc(a1-6)Glc(a1-6)Glc
# How it was run: as §1
# [45] = target: Glc(b1-4)Glc
# How it was run: as §1
binder,measurement,setting,value
B1,glycan array binding signal (z-score),[1],-0.001
same,glycan array binding signal (z-score),[2],-0.156
same,glycan array binding signal (z-score),[3],-0.263
same,glycan array binding signal (z-score),[4],-0.177
same,glycan array binding signal (z-score),[5],-0.435
same,glycan array binding signal (z-score),[6],-0.32
same,glycan array binding signal (z-score),[7],-0.38
same,glycan array binding signal (z-score),[8],-0.269
same,glycan array binding signal (z-score),[9],-0.361
same,glycan array binding signal (z-score),[10],-0.337
same,glycan array binding signal (z-score),[11],-0.388
same,glycan array binding signal (z-score),[12],-0.049
same,glycan array binding signal (z-score),[13],-0.073
same,glycan array binding signal (z-score),[14],-0.271
same,glycan array binding signal (z-score),[15],0.021
same,glycan array binding signal (z-score),[16],-0.101
same,glycan array binding signal (z-score),[17],-0.335
same,glycan array binding signal (z-score),[18],-0.426
same,glycan array binding signal (z-score),[19],-0.416
same,glycan array binding signal (z-score),[20],-0.454
same,glycan array binding signal (z-score),[21],-0.412
same,glycan array binding signal (z-score),[22],-0.325
same,glycan array binding signal (z-score),[23],-0.195
same,glycan array binding signal (z-score),[24],-0.223
same,glycan array binding signal (z-score),[25],-0.261
same,glycan array binding signal (z-score),[26],-0.402
same,glycan array binding signal (z-score),[27],-0.385
same,glycan array binding signal (z-score),[28],-0.192
same,glycan array binding signal (z-score),[29],1
same,glycan array binding signal (z-score),[30],-0.208
same,glycan array binding signal (z-score),[31],-0.379
same,glycan array binding signal (z-score),[32],0.074
same,glycan array binding signal (z-score),[33],-0.126
same,glycan array binding signal (z-score),[34],-0.352
same,glycan array binding signal (z-score),[35],-0.421
same,glycan array binding signal (z-score),[36],-0.36
same,glycan array binding signal (z-score),[37],-0.465
same,glycan array binding signal (z-score),[38],-0.07
same,glycan array binding signal (z-score),[39],-0.445
same,glycan array binding signal (z-score),[40],-0.43
same,glycan array binding signal (z-score),[41],0.695
same,glycan array binding signal (z-score),[42],-0.133
same,glycan array binding signal (z-score),[43],1.14
same,glycan array binding signal (z-score),[44],0.263
same,glycan array binding signal (z-score),[45],0.446
